From the supplement of paper PMC3334620
Over roughly 33,000 sequences, “E-score (-0.5 to 0.5)” has its median near -0.041; the highest 2% begin near 0.37. The list shows a part of the results.

Target: T1, Ecm22 (UniProt Q05958)
T1 sequence: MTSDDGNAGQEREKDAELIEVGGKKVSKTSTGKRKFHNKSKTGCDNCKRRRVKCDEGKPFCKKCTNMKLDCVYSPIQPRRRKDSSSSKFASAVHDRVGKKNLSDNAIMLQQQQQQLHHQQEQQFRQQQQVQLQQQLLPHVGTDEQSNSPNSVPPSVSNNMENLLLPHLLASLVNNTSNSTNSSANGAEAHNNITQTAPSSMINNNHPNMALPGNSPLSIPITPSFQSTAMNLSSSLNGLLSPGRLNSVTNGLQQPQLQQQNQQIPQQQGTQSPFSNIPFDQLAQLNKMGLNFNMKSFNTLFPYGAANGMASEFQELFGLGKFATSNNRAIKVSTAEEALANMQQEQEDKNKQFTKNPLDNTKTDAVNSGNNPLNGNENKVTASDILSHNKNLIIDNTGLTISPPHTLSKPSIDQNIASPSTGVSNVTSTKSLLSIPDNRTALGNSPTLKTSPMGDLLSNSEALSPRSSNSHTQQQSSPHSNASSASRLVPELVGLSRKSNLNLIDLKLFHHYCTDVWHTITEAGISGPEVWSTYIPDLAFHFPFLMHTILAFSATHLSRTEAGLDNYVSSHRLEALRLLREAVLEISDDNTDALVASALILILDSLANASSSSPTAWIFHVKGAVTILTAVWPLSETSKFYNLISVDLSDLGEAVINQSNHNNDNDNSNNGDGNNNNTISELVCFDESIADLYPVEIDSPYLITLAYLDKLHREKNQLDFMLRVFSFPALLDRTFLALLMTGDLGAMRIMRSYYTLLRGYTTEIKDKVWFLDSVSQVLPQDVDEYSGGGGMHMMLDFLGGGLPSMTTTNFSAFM
Test: PBM E-score (8-mer binding enrichment) (E-score (-0.5 to 0.5)); higher = stronger / more preferred TF binding; most listed sequences are background and not binding sites
Details: protein concentration: 200 nM; construct: GST-full length
Procedure, shortened: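 The E-score, a modified Wilcoxon-Mann-Whitney statistic, was computed by the Universal PBM Analysis Suite for every ungapped eight-base word pooled with its reverse complement. Scans behind it were normalised with masliner after bound GST-tagged yeast transcription factors were detected with fluorescent anti-GST. The proteins, at about 100-200 nM, had been applied to universal all-10-mer Agilent arrays made double-stranded by primer extension.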

Sequence	PBM E-score
TGGCGCCA	-0.158
ACTGGGTC	-0.27
ATGGTATA	0.0457
GGAAAGAA	-0.177
CGGGGTCA	0.12
TGCGCCAA	-0.162
CCTGGGAC	-0.314
AACAAGTA	-0.12
CCCTCCCA	-0.107
AACCTCTG	-0.134
GCTTACGA	0.386
CGTCTCAA	-0.0951
AAAGAAAA	0.0442
ATTCTAAC	-0.0713
GTAATAGA	0.0326
AGTATACG	0.433
AATTTACA	-0.0707
CCCCTTAC	0.0401
CAATAGCA	-0.291
ACTACGCC	-0.224
ATAACATC	0.0136
CAATTGTA	-0.0178

Sequence	PBM E-score
ATCAGATC	-0.296
ACAACCCC	-0.089
GATGGTAC	0.179
AGACTACC	-0.0547
GCATAGCC	-0.178
ATCAAACC	-0.0993
CGTGGATA	0.207
AACGAGTA	0.433
ACGTTCAG	-0.0561
GCGGTACA	-0.0699
ATCCAGTC	-0.109
AAGCGGTC	-0.0833
AGCACACT	-0.00911
CTGTTCGA	-0.116
GGGTGAAC	-0.056
CTAACGAA	0.219
ATTCCTCC	-0.135
AAGTGATT	-0.00614
GACTTTTA	-0.222
CTGTTGCC	-0.265
ATAGACCG	0.0119
CTTCGCTC	0.275

Sequence	PBM E-score
GAAATCCA	-0.00293
CTGCCGTC	0.0239
CAGCTGGG	-0.053
GGTTAATA	0.056
ATACGCGG	0.248
AGGGACTG	-0.399
GCAAAAGA	-0.103
GTGTTTAA	-0.0622
ACGATTAG	0.303
ATAGCCCG	-0.0381
CCTGGGGC	-0.105
AACTGCTC	-0.0808
CGCTCTCC	-0.00221
ACATGAAT	-0.0433
CCCCTCCA	-0.144
AGATTCCC	-0.133
CTATAACA	-0.228
ACGATGGG	0.246
CATTTCAC	-0.102
TAATCAGA	-0.156
CTCCGCAC	-0.158
GCCCTCAC	-0.19

Sequence	PBM E-score
CATCTGCC	-0.145
AACAGATC	0.0569
ACGCGCCC	0.0332
GTTGGCTA	-0.174
GGGTTACC	-0.00868
CCAGTCCG	-0.071
CCATTATC	0.0799
ATAACGGA	0.0568
AGGCTTAT	-0.281
ATAGCCTA	-0.0945
GCTGCTAA	-0.14
AATACAGG	-0.0199
CGTGCAAC	0.0729
GTCTTAGA	-0.273
AGAGCAAG	-0.142
ACACGAGT	0.24
GGCCACCA	-0.161
CGTCCATA	-0.0279
GCGGTATA	-0.0371
CGGAATTA	0.134
CCCGTTCA	0.267
ACCTGATA	-0.135

Sequence	PBM E-score
CTATATAC	0.327
CCAACAGG	-0.173
TTGACAAA	0.0926
AAAGGGGG	-0.196
GTGGCTAA	-0.0511
GGTACTAA	0.0853
ACAATCGT	0.273
CCAAGCGG	-0.131
ACGATCCC	0.156
GGAAGTTA	0.0819
AGGCATCC	-0.227
ATTTCCCA	0.00914
ATAACACG	0.092
GGTTCATA	0.0139
CCCCCCGG	-0.333
AATCAAAC	0.163
GTTGCTAA	0.222
CGATCTAC	0.184
CCCTGTGA	-0.102
CGAACAGC	0.0557
CCTGTTAC	-0.095
